{
  "source": "PubChem BioAssay AID1671194",
  "about": "(National Center for Advancing Translational Sciences (NCATS), 2021)",
  "note": "Out of some 140,000 compounds screened, about 240 (0.17%) were called active. Inconclusive means that the source gave no clear call. Such entries were picked first, then a sample of the others. Calls follow the shape of the dose curve; as a rule, active = well fitted inhibition curve with a large enough effect; inconclusive = small, poorly fitted or top-dose-only effect; inactive = no such curve, though single readings can be large or run the other way. Potencies beside an inconclusive call are fits to weak or partial responses and may not hold up. Potency is read from the fitted curve at half-maximal effect; tags tell the direction and shape of the fitted curve.",
  "data": [
    {"assay": "Primary qHTS assay for inhibitors of alpha-synuclein gene (SNCA) expression; also: nearly all actives have a fitted effect of over 45% in size;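 as to activity change, negative = inhibition: plate controls were DMSO cells for no effect and cell-free wells for full effect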", "settings": "HEK-293 SNCA-luciferase knock-in, luminescence, 24 h; activity change, negative = inhibition: at 57.2 µM (top of the series) unless noted", "values": [
      {"smiles": "CC1=C[C@@H](CNC2CCOCC2)[C@H](C(C)C)C[C@H]1Cc1nc2ccccc2[nH]1", "Potency": "inconclusive: 11.2 µM [inhibitor, partial curve, poor fit]"},
      {"smiles": "C[C@H](C(=O)NCCN1CCOCC1)C1CC[C@@]2(C)Cc3sc(-c4ccccc4)nc3[C@@H](C)[C@@H]2[C@H]1O", "note": "(stereo partly drawn)", "Potency": "active: 0.794 µM"},
      {"smiles": "Cc1ccc(CNC(=O)C(=O)NCC(c2cccnc2)N2CCN(c3ccccc3F)CC2)cc1", "note": "(stereo not drawn)", "Potency": "inconclusive: 39.8 µM [inhibitor, single point]"},
      {"smiles": "Cc1oc2ncn(C)c(=O)c2c1C(=O)NCCCN(Cc1ccccc1)C(C)C", "Potency": "inconclusive: 14.1 µM [inhibitor, partial curve, poor fit]"},
      {"smiles": "Cc1cccc(-n2ncc3c(N4CCCCCC4)ncnc32)c1", "Potency": "inconclusive: 8.91 µM [inhibitor, partial curve, poor fit]"},
      {"smiles": "Cc1nn(C)c(C)c1C(C)NC(=O)c1ccc(CC2CCN(C(=O)C3CC3)CC2)cc1", "note": "(stereo not drawn)", "Potency": "inconclusive: 39.8 µM [inhibitor, single point]"},
      {"smiles": "COCc1cc(NCCSCc2ccccc2C)ncn1", "activity change, negative = inhibition": "inactive: 14.4%"},
      {"smiles": "Cn1c(CN2CCOCC2)nnc1C1CCCN(CCC(=O)O)C1", "note": "(stereo not drawn)", "Potency": "inconclusive: 8.91 µM [inhibitor, single point]"},
      {"smiles": "CCOc1cccc(CN2CCCC23Cc2ccccc2CNC3=O)c1", "note": "(stereo not drawn)", "Potency": "inactive"},
      {"smiles": "O=C(NCc1ccccc1)[C@@H]1Cc2nc[nH]c2CN1Cc1cccc(OC(F)(F)F)c1", "Potency": "inconclusive: 56.2 µM [inhibitor, single point]"},
      {"smiles": "CC(C)c1noc(-c2cccn3c(CNC(=O)c4ccccc4F)nnc23)n1", "Potency": "inconclusive: 8.91 µM [inhibitor, single point]"},
      {"smiles": "COCCN1C(=O)CC[C@]2(C(=O)N3CCCCCC3)CCCC[C@@H]12", "Potency": "inconclusive: 2.82 µM [inhibitor, full curve, poor fit]"},
      {"smiles": "O=C([C@@H]1C[C@H](F)CN1C(=O)Nc1ccc(Cl)cc1)N1CCCCC1", "Potency": "inconclusive: 39.8 µM [inhibitor, single point]"},
      {"smiles": "COc1cccc(CN2CCNc3cc(Nc4cccnc4)ncc3C2)c1", "activity change, negative = inhibition": "inactive: 19.1% [at 87.6 µM]"},
      {"smiles": "Cc1noc(C)c1S(=O)(=O)N1CCC(CO)(CCCc2ccccc2)CC1", "Potency": "inconclusive: 6.31 µM [inhibitor, partial curve, poor fit]"},
      {"smiles": "Cc1ccc(-c2cn3cc(C(=O)N4CCOCC4)nc3s2)cc1", "Potency": "inconclusive: 10 µM [inhibitor, full curve, poor fit]"},
      {"smiles": "CCN1CCN(C(=O)c2ccc3c(c2)N(Cc2c(F)cccc2Cl)C(=O)c2ccccc2S3)CC1", "Potency": "inconclusive: 39.8 µM [inhibitor, single point]"},
      {"smiles": "CS(=O)(=O)N1CCOc2ccc(CCC(=O)N3CCCCC3)cc2C1", "Potency": "inconclusive: 28.2 µM [inhibitor, partial curve, poor fit]"},
      {"smiles": "Cc1ccc(-c2noc(CN(C3CCCCC3)S(=O)(=O)c3ccc(F)cc3)n2)cc1", "Potency": "inconclusive: 3.16 µM [inhibitor, single point]"},
      {"smiles": "O=C(Cc1ccc(F)cc1)N1CCN(C(=O)c2nnn3c2COC(c2ccccc2)C3)CC1", "note": "(stereo not drawn)", "activity change, negative = inhibition": "inactive: 57.5%"},
      {"smiles": "COc1ccc(OCCn2cc(C(=O)c3ccco3)c3ccccc32)cc1", "Potency": "inconclusive: 8.91 µM [inhibitor, partial curve, poor fit]"},
      {"smiles": "CCOc1ccccc1CN1C(=O)c2ccccc2C1C(=O)NC1CCCCCC1", "note": "(stereo not drawn)", "activity change, negative = inhibition": "inactive: -5.09%"},
      {"smiles": "CCC1CN(c2ccc(-c3nc(-c4ccc(OC)cc4)no3)cn2)CCN1C", "note": "(stereo not drawn)", "activity change, negative = inhibition": "inactive: 85.4%"},
      {"smiles": "CC1(C)[C@H](Cc2cc(COC(=O)c3cccs3)on2)C[C@@H]1NC(=O)c1cccs1", "activity change, negative = inhibition": "inactive: -1.79% [at 87.6 µM]"},
      {"smiles": "Cc1ccc(CNC(=O)c2sc3ncnc(N(C)C4CCCCC4)c3c2C)cc1", "Potency": "inconclusive: 39.8 µM [inhibitor, single point]"},
      {"smiles": "CCc1ccc(NC(=O)C2CCCN(S(=O)(=O)c3cccc4cccnc34)C2)cc1", "note": "(stereo not drawn)", "Potency": "inconclusive: 12.6 µM [inhibitor, partial curve, poor fit]"},
      {"smiles": "Cc1nn2c(c1-c1cccc3cn[nH]c13)N(C(=O)c1cccc(Cl)c1)CCC2", "Potency": "inconclusive: 11.2 µM [inhibitor, single point]"},
      {"smiles": "Cc1nn2c(c1-c1ccccc1-c1ccccc1)N(CCC(C)C)CCC2", "Potency": "active: 1.12 µM"},
      {"smiles": "CCC(=O)N1CCc2ccc(C(=O)NC3CCCCC3)cc21", "Potency": "inconclusive: 10 µM [inhibitor, full curve, poor fit]"},
      {"smiles": "CCN1CCN(C(=O)c2ccc(-c3nnc4ccc(NC(=O)C5CCC5)cn34)cc2)CC1", "activity change, negative = inhibition": "inactive: 12.9%"},
      {"smiles": "COc1cccc(N2C(=O)NC(=NC3CCCCC3)C23CCN(Cc2ccsc2)C3)c1", "note": "(stereo not drawn)", "Potency": "inconclusive: 2.51 µM [inhibitor, full curve, poor fit]"},
      {"smiles": "Cc1ccc(OCC(=O)N(Cc2ccc(Cl)cc2)CC2CCCO2)cc1C", "note": "(stereo not drawn)", "Potency": "inconclusive: 10 µM [inhibitor, partial curve, poor fit]"},
      {"smiles": "O=C(CC1CCCCN(Cc2ccccc2)C1=O)Nc1ccccc1", "note": "(stereo not drawn)", "Potency": "inconclusive: 7.94 µM [inhibitor, full curve, poor fit]"},
      {"smiles": "CC(=O)N1CCN(C(=O)c2nc(N)nc3c2CCCC3)CC(O)C1", "note": "(stereo not drawn)", "activity change, negative = inhibition": "inactive: 2.52%"},
      {"smiles": "CCc1noc(-c2ccn3c(CNC(=O)c4cc(F)ccc4Cl)nnc3c2)n1", "activity change, negative = inhibition": "inactive: 3.43%"},
      {"smiles": "NC(=O)Cc1c[nH]c2ncc(-c3ccccc3C(F)(F)F)cc12", "activity change, negative = inhibition": "inactive: -10.6% [at 87.6 µM]"},
      {"smiles": "COc1ccccc1Nc1ccnc(N2CCC(NC(=O)c3ccc(F)cc3)CC2)n1", "activity change, negative = inhibition": "inactive: 7.77%"},
      {"smiles": "O=C(Nc1cccnc1)N1CCC(Cc2cccc(Oc3ccc(C(F)(F)F)cn3)c2)CC1", "Potency": "inconclusive: 4.82 µM [inhibitor, full curve, poor fit]"},
      {"smiles": "CC(C)C[C@@H]1N[C@H](C(=O)NC2CCC2)Cc2cn(Cc3ccncc3)c3cccc1c23", "Potency": "inconclusive: 15.8 µM [inhibitor, partial curve, poor fit]"},
      {"smiles": "O=C(NC[C@H]1O[C@@H](CO)[C@@H](O)[C@H]1N1CCN(c2ccccc2)CC1)c1ccccc1Cl", "Potency": "inconclusive: 31.6 µM [inhibitor, single point]"},
      {"smiles": "CCOc1ccc(NC(=O)N(Cc2ccc(CC)cc2)Cc2cn[nH]c2-c2ccc(OC)cc2)cc1", "Potency": "inconclusive: 39.8 µM [inhibitor, single point]"},
      {"smiles": "CN1C[C@@H](NC(=O)Nc2cccc(C#N)c2)C[C@H]1c1nc(-c2ccc(Cl)cc2)no1", "Potency": "inconclusive: 3.55 µM [inhibitor, partial curve, poor fit]"},
      {"smiles": "O=c1c(-c2cc(-c3ccc(Cl)cc3)nc3c2COc2ccccc2-3)coc2ccccc12", "Potency": "inconclusive: 39.8 µM [inhibitor, single point]"},
      {"smiles": "COc1ccc(CNC(=O)c2ccc3c(c2)N(Cc2ccccc2)C(=O)c2ccccc2S3=O)cc1", "note": "(stereo not drawn)", "activity change, negative = inhibition": "inactive: 19.9%"},
      {"smiles": "CN(CCc1ccccc1)C(=O)c1cc2c(s1)CCN(C(=O)c1ccc(Cl)cc1)C2", "Potency": "inconclusive: 7.94 µM [inhibitor, single point]"},
      {"smiles": "O=C(CSc1nc2c(c(=O)[nH]1)CCCC2)Nc1ccccc1C(F)(F)F", "Potency": "inconclusive: 7.08 µM [inhibitor, single point]"},
      {"smiles": "CC(=O)N1CCC[C@@]2(CCN(c3ncccn3)C2)C1", "activity change, negative = inhibition": "inactive: 11.9%"},
      {"smiles": "N[C@@H](Cc1cc(I)c(O)c(I)c1)C(=O)O", "activity change, negative = inhibition": "inactive: 6.42% [at 25.6 µM]"},
      {"smiles": "O=C(CN1C(=O)CC(c2ccco2)Sc2ccccc21)Nc1cccc(C(F)(F)F)c1", "note": "(stereo not drawn)", "Potency": "inconclusive: 15.8 µM [inhibitor, single point]"},
      {"smiles": "CC(C)NC(=O)N1[C@@H]2CC[C@H]1CC(NC(=O)c1ccc(F)cc1)C2", "note": "(stereo partly drawn)", "Potency": "inconclusive: 8.91 µM [inhibitor, single point]"},
      {"smiles": "Cc1nc(N)ncc1C(=O)N1CC[C@@H]2[C@@H](CCC(=O)N2CCCO)C1", "Potency": "inconclusive: 8.91 µM [inhibitor, single point]"},
      {"smiles": "Cc1ccc(-c2n[nH]c3c2C(c2ccccc2Cl)N(c2ccc(C(=O)O)cc2)C3=O)cc1", "note": "(stereo not drawn)", "Potency": "inconclusive: 0.398 µM [inhibitor, partial curve, poor fit]"},
      {"smiles": "CCS(=O)(=O)c1ccc2oc([C@H]3CCN(C(C)C)C3)nc2c1", "activity change, negative = inhibition": "inactive: 202% [at 87.6 µM]"},
      {"smiles": "Cc1c(CN(C)C(=O)c2cc(-c3ccccc3)nc3ccc(Br)cc23)cnn1C", "Potency": "inconclusive: 25.1 µM [inhibitor, single point]"},
      {"smiles": "Cc1nn(C)cc1CN1C[C@@H](COCC2CC2)[C@H](c2ccccn2)C1", "Potency": "inconclusive: 39.8 µM [inhibitor, single point]"},
      {"smiles": "CCOc1ccc(NC(=O)Cn2c(=O)cc(C)c3c(C)nn(C)c32)cc1", "Potency": "inconclusive: 2.82 µM [inhibitor, full curve, poor fit]"},
      {"smiles": "Cc1ccc(-c2nc(C)c(CCNC(=O)C(=O)Nc3cc(C)ccc3C)s2)cc1", "Potency": "inconclusive: 7.08 µM [inhibitor, single point]"},
      {"smiles": "O=C1CN(C(=O)c2ccc(S(=O)(=O)N3CCCC3)cc2)C(c2ccccc2)c2cc(Cl)ccc2N1", "note": "(stereo not drawn)", "Potency": "inconclusive: 28.2 µM [inhibitor, single point]"},
      {"smiles": "CCn1c(=O)c2ccnn2c2ccc(C(=O)NCCc3cccnc3)cc21", "activity change, negative = inhibition": "inactive: -6.6%"},
      {"smiles": "O=C(N[C@@H]1CN(C(=O)c2ccccn2)CC[C@@H]1CO)C1CC1", "Potency": "inconclusive: 28.2 µM [inhibitor, single point]"},
      {"smiles": "Cc1ccc(C(=O)NCc2nnc3cc(-c4nc(C5CC5)no4)ccn23)cc1F", "Potency": "inconclusive: 0.794 µM [inhibitor, full curve, poor fit]"},
      {"smiles": "Cn1ncc2c(C(=O)NCCc3ccc(Cl)cc3)cc(-c3ccc(Cl)cc3)nc21", "Potency": "inconclusive: 39.8 µM [inhibitor, single point]"},
      {"smiles": "COc1ccc(N2CC(c3noc(-c4ccc(C)c(C)c4)n3)CC2=O)cc1OC", "note": "(stereo not drawn)", "Potency": "inconclusive: 31.6 µM [inhibitor, partial curve, poor fit]"}
    ]}
  ]
}
